# Results taken from PubChem BioAssay (NCI).
#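 All cell lines were grown in 96-well plates and treated with compound for 48 hours. Here, GI50 denotes the concentration required for 50% inhibition of growth. At the TGI there is no net growth.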
# Test system: NCI-H322M lung
# Assay: growth of human tumour cells (NCI), 48 h
Structure (SMILES),TGI [µM],GI50 [µM]
O=C(c1ccc(Cl)cc1Cl)N(C(=O)N1CCC(c2ccccc2)CC1)c1ccccc1,> 100,
CS(=O)(=O)CC1=Nc2nnc(CCCCCCCc3nnc4n3C(=O)C(CS(C)(=O)=O)=N4)n2C1=O,> 100,
Cc1ccc(C(=O)Nc2ccc(S(=O)(=O)O)c3cc(S(=O)(=O)O)cc(S(=O)(=O)O)c23)cc1NC(=O)c1cccc(N)c1,> 100,
COc1ccc(Cn2nc(-c3cc(OC)c(OC)c(OC)c3)c3c2CCc2cnoc2-3)cc1OC,> 100,58.1
O=S(=O)(c1ccc(NC(=S)NCc2cccnc2)cc1)N1CCCCC1,> 100,50.1
O=c1cc(CNc2cc(F)cc(F)c2)c2ccc(I)cc2[nH]1,> 100,0.896
Cn1c(=O)c2[nH]c(/N=N/N3CCN(CCO)CC3)nc2n(C)c1=O,> 100,
COc1ccccc1C1CC(=O)CC(c2ccccc2OC)C12C(=O)NC(=S)NC2=O (stereo unspecified),> 100,
CSC1=N[C@H](c2ccccc2)CS1,> 100,
COc1cc2nc(Cl)nc(Nc3cccc(C(=O)/C=C/c4ccccc4)c3)c2cc1OC,> 100,> 45.2
CC1CC2C(=O)NC(=O)C2c2[nH]c3ccccc3c21 (stereo unspecified),> 100,
COc1ccc(OC)c2sc(N3C(=O)/C(=C/Cc4ccco4)N=C3c3ccccc3)nc12,> 100,
O=C1C/C(=C/c2ccc(/C=C3/CC(=O)N(c4cccc(Br)c4)C3=O)cc2)C(=O)N1c1cccc(Br)c1,> 100,
CN(C)c1ccc(/C=C/C=C\C2=CC(=C\C=C/C=C3C=CC(=[N+](C)C)C=C3)/Sc3ccccc32)cc1,> 100,
CCOC(=O)c1nc2ccc(C(F)(F)F)cc2nc1NCc1ccc(Cl)c(Cl)c1,> 100,
Cc1nc2sc(CCl)nn2c(=O)c1Cl,30.5,
COc1cc2cc(Oc3ccc(NC(=O)Nc4ccc(Cl)c(C(F)(F)F)c4)cc3)c(C)nc2cc1OCCN1CCCCC1,3.18,1.78
C[C@]12CC[C@H]3[C@@H](CCC4=CC(=O)CC[C@@H]43)[C@@H]1CC[C@@H]2OC(=O)N(CCCl)N=O,35,5.59
Cc1ccc(NCC2CC/C(=C\c3ccc(Cl)cc3)C2=O)cc1 (stereo unspecified),> 100,
O=S1(=O)c2cnccc2NC(=NCc2cccc3ccccc23)N1c1ccccc1,> 100,
CCc1nnc(CC)n1NCCCC(=O)O,> 100,
Fc1c(F)c(C(F)(F)F)c(F)c(F)c1N/N=C\c1c[nH]c2ccccc12,18.9,
CC1=C2CCCC2C/C(=N/Nc2ccc([N+](=O)[O-])cc2[N+](=O)[O-])CC1 (stereo unspecified),> 100,
O=C(O)C(=C\c1ccc2c(c1)OCO2)/C(=C/c1ccc2c(c1)OCO2)C(=O)O,> 100,
CC(C)=CCOc1cc(NC(=S)c2ccoc2C)ccc1Cl,> 100,

Structure (SMILES),TGI [µM],GI50 [µM]
COc1cc(Cn2cc3c(c2)-c2oncc2CC3)cc(OC)c1OC,,0.0324
Cc1nn2c(=O)c([N+](=O)[O-])c(/C=C/c3ccccc3)nc2s1,29.7,
O=c1[nH]c(=O)n(C2OC(CO)C(O)C(F)C2O)cc1F (stereo unspecified),> 100,
CCOC(=O)C=C1CCN(C(=O)c2ccccc2)CC1,> 100,
NCC1(N2CCOCC2)C2CCCC21CO (stereo unspecified),> 100,
CCN(CC)c1ccc(/C=C/c2cc(C)c3ccccc3n2)cc1,63.1,10.4
O=C(CC1Sc2ccccc2NC1=O)Nc1cc(Cl)ccc1Cl (stereo unspecified),> 100,
CC1=C(C(=O)Nc2cccc3c2C(=O)NC3=O)CC(C(=O)Nc2cccc3c2C(=O)NC3=O)=C(C)N1,> 100,
COc1cc2cc(C(=O)N3CC(CCl)c4c3cc(NC(=O)C(C)(C)c3ccccc3[N+](=O)[O-])c3ccccc43)[nH]c2c(OC)c1OC (stereo unspecified),31.7,
COC(=O)[C@@H]1CSC(=S)N1C(=O)C[C@H]1CC=CC[C@H]1CC(=O)Sc1ccccc1,56,
COc1ccc(C2c3cc4c(cc3C(O)C3CCC(=O)N23)OCO4)cc1 (stereo unspecified),> 100,
COc1ccc2c(c1)CCC1C2CCC2(C)C1CCC2(O)CNC(=O)CCCCC1CCSS1 (stereo unspecified),> 100,74.4
CCOC(=O)/C(O)=C(/C=N\C(=S)Nc1ccccc1Cl)C(=O)OCC,> 100,
CC1C2CC(CC(=O)N2)C1(C)C (stereo unspecified),> 100,
Cc1ccc2c(c1)C1(C)OC(CC(N)C1O)O2 (stereo unspecified),> 100,
CC(=O)/C(=C\c1ccco1)C(=O)Nc1ccccc1,> 100,
CC1(C)CCC2(C(=O)OC3OC(CO)C(O)C(O)C3O)CC[C@]3(C)C(=CCC4C5(C)CC[C@H](OC6OC(C(=O)O)C(O)C(O)C6O)C(C)(C)C5CCC43C)C2C1 (stereo partly specified),11.7,4.08
O=C(O)CS(=O)(=O)C(c1ccccc1)c1ccccc1,> 100,
CC1CC2OC(=O)C3CC(O)CC(=C23)[C@@]12C[C@@H](c1ccoc1)OC2=O (stereo partly specified),> 100,
CCOC(=O)/C(N=Nc1ccc(-n2c(C)nc3ccccc3c2=O)cc1)=C(/C)O,> 100,
Cc1c2cnccc2c(C)c2c1[nH]c1ccc(O)cc12,> 10,
O=C(CCN1CCCC1)Nc1ccc2c(NCc3ccc(F)cc3)c3ccccc3nc2c1,1.73,0.405
CCOC(=O)CSc1ccnc(=O)[nH]1,> 100,
c1ccc2nc(Cn3c[n+](Cc4ccc5ccccc5n4)c4ccccc43)ccc2c1,17.1,3.68
O=C(O)C1CC2C3CCC2C1C3=O (stereo unspecified),> 100,
